# According to the supplement of paper PMC8728848:
# This is one part of the list.
# B1: FimA-N3 (Actinomyces oris) (protein)
# chain: MHHHHHHSSGVDLGTENLYFQSNAGLQGAQFQLYKAKNAYANTCSNEKEGAPIAINGQTTLTTDAQGAIDIKGLFISDSIDGADRDNQVNAMERCYVLVETKAPAGYVLPAGNGAATPVKVKAGEETTDN
# Experiments:
# Test in all cases: glycan array binding signal (z-score within array); higher = stronger binding
# Conditions in all cases: glycan notation: IUPAC condensed, linker removed
# [1] = target: Neu5Ac(a2-3)Gal(b1-3)[Fuc(a1-4)]GlcNAc
# Outline: (§1)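 Glycan array data were curated from 3228 arrays in the Consortium for Functional Glycomics database and kept only where the protein sequence was available. Glycan names were converted to IUPAC-condensed notation, and columns mapping to the same glycan were averaged. The binding signal is a within-array Z-score, averaged across arrays of the same protein sequence at different concentrations or buffers and across linkers. Negative Z-scores can be read as non-binding.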
# [2] = target: Neu5Ac(a2-3)Gal(b1-3)[Fuc(a1-4)]GlcNAc(b1-3)Gal(b1-3)[Fuc(a1-4)]GlcNAc
# Outline: as §1
# [3] = target: Neu5Ac(a2-3)Gal(b1-3)[Fuc(a1-4)]GlcNAc(b1-3)Gal(b1-4)[Fuc(a1-3)]GlcNAc
# Outline: as §1
# [4] = target: Neu5Ac(a2-3)Gal(b1-3)[GlcNAc(b1-6)]GalNAc
# Outline: as §1
# [5] = target: Neu5Ac(a2-3)Gal(b1-3)[Neu5Ac(a2-6)]GalNAc
# Outline: as §1
# [6] = target: Neu5Ac(a2-3)Gal(b1-3)[Neu5Ac(a2-6)]GlcNAc(b1-3)[Fuc(a1-3)[Gal(b1-4)]GlcNAc(b1-6)]Gal(b1-4)Glc
# Outline: as §1
# [7] = target: Neu5Ac(a2-3)Gal(b1-3)]Neu5Ac(a2-3)Gal(b1-4)]GlcNAc
# Outline: as §1
# [8] = target: Neu5Ac(a2-3)Gal(b1-4)Glc
# Outline: as §1
# [9] = target: Neu5Ac(a2-3)Gal(b1-4)GlcNAc
# Outline: as §1
# [10] = target: Neu5Ac(a2-3)Gal(b1-4)GlcNAc(b1-2)Man
# Outline: as §1
# [11] = target: Neu5Ac(a2-3)Gal(b1-4)GlcNAc(b1-2)Man(a1-3)[GlcNAc(b1-4)][Neu5Ac(a2-3)Gal(b1-4)GlcNAc(b1-2)Man(a1-6)]Man(b1-4)GlcNAc(b1-4)GlcNAc
# Outline: as §1
# [12] = target: Neu5Ac(a2-3)Gal(b1-4)GlcNAc(b1-2)Man(a1-3)[Neu5Ac(a2-3)Gal(b1-4)GlcNAc(b1-2)Man(a1-6)]Man(b1-4)GlcNAc(b1-4)GlcNAc
# Outline: as §1
# [13] = target: Neu5Ac(a2-3)Gal(b1-4)GlcNAc(b1-2)Man(a1-3)[Neu5Ac(a2-3)Gal(b1-4)GlcNAc(b1-2)Man(a1-6)]Man(b1-4)GlcNAc(b1-4)[Fuc(a1-6)]GlcNAc
# Outline: as §1
# [14] = target: Neu5Ac(a2-3)Gal(b1-4)GlcNAc(b1-2)Man(a1-3)[Neu5Ac(a2-6)Gal(b1-4)GlcNAc(b1-2)Man(a1-6)]Man(b1-4)GlcNAc(b1-4)GlcNAc
# Outline: as §1
# [15] = target: Neu5Ac(a2-3)Gal(b1-4)GlcNAc(b1-2)[Neu5Ac(a2-3)Gal(b1-4)GlcNAc(b1-4)]Man(a1-3)[GlcNAc(b1-4)][Neu5Ac(a2-3)Gal(b1-4)GlcNAc(b1-2)[Neu5Ac(a2-3)Gal(b1-4)GlcNAc(b1-6)]Man(a1-6)]Man(b1-4)GlcNAc(b1-4)GlcNAc
# Outline: as §1
# [16] = target: Neu5Ac(a2-3)Gal(b1-4)GlcNAc(b1-2)[Neu5Ac(a2-3)Gal(b1-4)GlcNAc(b1-4)]Man(a1-3)[GlcNAc(b1-4)][Neu5Ac(a2-3)Gal(b1-4)GlcNAc(b1-4)Man(a1-6)]Man(b1-4)GlcNAc(b1-4)GlcNAc
# Outline: as §1
# [17] = target: Neu5Ac(a2-3)Gal(b1-4)GlcNAc(b1-2)[Neu5Ac(a2-3)Gal(b1-4)GlcNAc(b1-6)]Man(a1-6)[Neu5Ac(a2-3)Gal(b1-4)GlcNAc(b1-2)Man(a1-3)]Man(b1-4)GlcNAc(b1-4)GlcNAc
# Outline: as §1
# [18] = target: Neu5Ac(a2-3)Gal(b1-4)GlcNAc(b1-2)[Neu5Ac(a2-3)Gal(b1-4)GlcNAc(b1-6)]Man(a1-6)[Neu5Ac(a2-3)Gal(b1-4)GlcNAc(b1-2)Man(a1-3)][GlcNAc(b1-4)]Man(b1-4)GlcNAc(b1-4)GlcNAc
# Outline: as §1
# [19] = target: Neu5Ac(a2-3)Gal(b1-4)GlcNAc(b1-3)Gal
# Outline: as §1
# [20] = target: Neu5Ac(a2-3)Gal(b1-4)GlcNAc(b1-3)Gal(b1-3)GlcNAc
# Outline: as §1
# [21] = target: Neu5Ac(a2-3)Gal(b1-4)GlcNAc(b1-3)Gal(b1-4)GlcNAc
# Outline: as §1
# [22] = target: Neu5Ac(a2-3)Gal(b1-4)GlcNAc(b1-3)Gal(b1-4)GlcNAc(b1-2)Man(a1-3)[Neu5Ac(a2-3)Gal(b1-4)GlcNAc(b1-3)Gal(b1-4)GlcNAc(b1-2)Man(a1-6)]Man(b1-4)GlcNAc(b1-4)GlcNAc
# Outline: as §1
# [23] = target: Neu5Ac(a2-3)Gal(b1-4)GlcNAc(b1-3)Gal(b1-4)GlcNAc(b1-3)Gal(b1-4)GlcNAc
# Outline: as §1
# [24] = target: Neu5Ac(a2-3)Gal(b1-4)GlcNAc(b1-3)Gal(b1-4)GlcNAc(b1-3)Gal(b1-4)GlcNAc(b1-2)Man(a1-3)[Neu5Ac(a2-3)Gal(b1-4)GlcNAc(b1-3)Gal(b1-4)GlcNAc(b1-3)Gal(b1-4)GlcNAc(b1-2)Man(a1-6)]GalNAc
# Outline: as §1
# [25] = target: Neu5Ac(a2-3)Gal(b1-4)GlcNAc(b1-3)Gal(b1-4)GlcNAc(b1-3)GalNAc
# Outline: as §1
# [26] = target: Neu5Ac(a2-3)Gal(b1-4)GlcNAc(b1-3)Gal(b1-4)GlcNAc(b1-3)[Neu5Ac(a2-3)Gal(b1-4)GlcNAc(b1-3)Gal(b1-4)GlcNAc(b1-6)]GalNAc
# Outline: as §1
# [27] = target: Neu5Ac(a2-3)Gal(b1-4)GlcNAc(b1-3)Gal(b1-4)GlcNAc(b1-6)[Gal(b1-3)]GalNAc
# Outline: as §1
# [28] = target: Neu5Ac(a2-3)Gal(b1-4)GlcNAc(b1-3)Gal(b1-4)[Fuc(a1-3)]GlcNAc
# Outline: as §1
# [29] = target: Neu5Ac(a2-3)Gal(b1-4)GlcNAc(b1-3)GalNAc
# Outline: as §1
# [30] = target: Neu5Ac(a2-3)Gal(b1-4)GlcNAc(b1-3)[Neu5Ac(a2-3)Gal(b1-4)GlcNAc(b1-6)]GalNAc
# Outline: as §1
# [31] = target: Neu5Ac(a2-3)Gal(b1-4)GlcNAc(b1-6)GalNAc
# Outline: as §1
# [32] = target: Neu5Ac(a2-3)Gal(b1-4)GlcNAc(b1-6)[Gal(b1-3)]GalNAc
# Outline: as §1
# [33] = target: Neu5Ac(a2-3)Gal(b1-4)GlcNAc(b1-6)[Neu5Ac(a2-3)Gal(b1-3)]GalNAc
# Outline: as §1
# [34] = target: Neu5Ac(a2-3)Gal(b1-4)GlcNAc6S
# Outline: as §1
# [35] = target: Neu5Ac(a2-3)Gal(b1-4)[Fuc(a1-3)]GlcNAc
# Outline: as §1
# [36] = target: Neu5Ac(a2-3)Gal(b1-4)[Fuc(a1-3)]GlcNAc(b1-2)Man
# Outline: as §1
# [37] = target: Neu5Ac(a2-3)Gal(b1-4)[Fuc(a1-3)]GlcNAc(b1-3)Gal
# Outline: as §1
# [38] = target: Neu5Ac(a2-3)Gal(b1-4)[Fuc(a1-3)]GlcNAc(b1-3)Gal(b1-4)GlcNAc
# Outline: as §1
# [39] = target: Neu5Ac(a2-3)Gal(b1-4)[Fuc(a1-3)]GlcNAc(b1-3)Gal(b1-4)[Fuc(a1-3)]GlcNAc(b1-3)Gal(b1-4)[Fuc(a1-3)]GlcNAc
# Outline: as §1
# [40] = target: Neu5Ac(a2-3)Gal(b1-4)[Fuc(a1-3)]GlcNAc(b1-3)GalNAc
# Outline: as §1
# [41] = target: Neu5Ac(a2-3)Gal(b1-4)[Fuc(a1-3)]GlcNAc(b1-6)[Gal(b1-3)]GalNAc
# Outline: as §1
# [42] = target: Neu5Ac(a2-3)Gal(b1-4)[Fuc(a1-3)]GlcNAc(b1-6)[Neu5Ac(a2-3)Gal(b1-3)]GalNAc
# Outline: as §1
# [43] = target: Neu5Ac(a2-3)Gal(b1-4)[Fuc(a1-3)]GlcNAc6S
# Outline: as §1
# [44] = target: Neu5Ac(a2-3)Gal6S(b1-4)GlcNAc
# Outline: as §1
# [45] = target: Neu5Ac(a2-3)Gal6S(b1-4)[Fuc(a1-3)]GlcNAc
# Outline: as §1
binder,measurement,setting,value
B1,glycan array binding signal (z-score),[1],15.7
same,glycan array binding signal (z-score),[2],0.573
same,glycan array binding signal (z-score),[3],0.004
same,glycan array binding signal (z-score),[4],0.093
same,glycan array binding signal (z-score),[5],-0.145
same,glycan array binding signal (z-score),[6],0.006
same,glycan array binding signal (z-score),[7],-0.167
same,glycan array binding signal (z-score),[8],0.051
same,glycan array binding signal (z-score),[9],-0.259
same,glycan array binding signal (z-score),[10],0.309
same,glycan array binding signal (z-score),[11],-0.138
same,glycan array binding signal (z-score),[12],-0.045
same,glycan array binding signal (z-score),[13],-0.17
same,glycan array binding signal (z-score),[14],-0.357
same,glycan array binding signal (z-score),[15],-0.254
same,glycan array binding signal (z-score),[16],-0.431
same,glycan array binding signal (z-score),[17],-0.056
same,glycan array binding signal (z-score),[18],-0.261
same,glycan array binding signal (z-score),[19],-0.56
same,glycan array binding signal (z-score),[20],-0.142
same,glycan array binding signal (z-score),[21],-0.405
same,glycan array binding signal (z-score),[22],0.001
same,glycan array binding signal (z-score),[23],-0.19
same,glycan array binding signal (z-score),[24],0.894
same,glycan array binding signal (z-score),[25],-0.529
same,glycan array binding signal (z-score),[26],-0.023
same,glycan array binding signal (z-score),[27],2.36
same,glycan array binding signal (z-score),[28],0.29
same,glycan array binding signal (z-score),[29],-0.42
same,glycan array binding signal (z-score),[30],0.13
same,glycan array binding signal (z-score),[31],-0.007
same,glycan array binding signal (z-score),[32],0.025
same,glycan array binding signal (z-score),[33],-0.19
same,glycan array binding signal (z-score),[34],-0.458
same,glycan array binding signal (z-score),[35],-0.554
same,glycan array binding signal (z-score),[36],-0.202
same,glycan array binding signal (z-score),[37],-0.324
same,glycan array binding signal (z-score),[38],-0.321
same,glycan array binding signal (z-score),[39],-0.307
same,glycan array binding signal (z-score),[40],0.165
same,glycan array binding signal (z-score),[41],1.02
same,glycan array binding signal (z-score),[42],0.009
same,glycan array binding signal (z-score),[43],-0.078
same,glycan array binding signal (z-score),[44],-0.303
same,glycan array binding signal (z-score),[45],-0.76
